Results reported in PubChem BioAssay AID504333 (National Center for Advancing Translational Sciences (NCATS), 2011).
The whole screen tested about 360,000 compounds, of which about 16,000 (4.4%) were called active. The inconclusive results got no clear call from the source; some entries with a clear call stand among them for comparison. Calls follow the shape of the dose curve; as a rule, active = well fitted inhibition curve with a large enough effect; inconclusive = small, poorly fitted or top-dose-only effect; inactive = no such curve, though single readings can be large or run the other way. Where the call is inconclusive, the potency comes from a doubtful curve fit.

Molecular target: Bromodomain adjacent to zinc finger domain protein 2B (Homo sapiens) (UniProt Q9UIF8)
Test: qHTS Assay for Inhibitors of BAZ2B; also: nearly all actives have a fitted effect of over 60% in size
Details: AlphaScreen BAZ2B-H3K14Ac peptide displacement; series mostly up to 114 µM
Summary of the method: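 AlphaScreen luminescence quantifies BAZ2B engagement of H3K14Ac peptide; the protein and biotinylated peptide are both at 50 nM final, buffer PBS pH 7.4 with 0.01% Tween-20, all steps at room temperature.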
Potency is read from the fitted curve at half-maximal effect; tags tell the direction and shape of the fitted curve.

Sequence of UniProt Q9UIF8 (Q9UIF8 whole entry, looked up, the tested form may be a part): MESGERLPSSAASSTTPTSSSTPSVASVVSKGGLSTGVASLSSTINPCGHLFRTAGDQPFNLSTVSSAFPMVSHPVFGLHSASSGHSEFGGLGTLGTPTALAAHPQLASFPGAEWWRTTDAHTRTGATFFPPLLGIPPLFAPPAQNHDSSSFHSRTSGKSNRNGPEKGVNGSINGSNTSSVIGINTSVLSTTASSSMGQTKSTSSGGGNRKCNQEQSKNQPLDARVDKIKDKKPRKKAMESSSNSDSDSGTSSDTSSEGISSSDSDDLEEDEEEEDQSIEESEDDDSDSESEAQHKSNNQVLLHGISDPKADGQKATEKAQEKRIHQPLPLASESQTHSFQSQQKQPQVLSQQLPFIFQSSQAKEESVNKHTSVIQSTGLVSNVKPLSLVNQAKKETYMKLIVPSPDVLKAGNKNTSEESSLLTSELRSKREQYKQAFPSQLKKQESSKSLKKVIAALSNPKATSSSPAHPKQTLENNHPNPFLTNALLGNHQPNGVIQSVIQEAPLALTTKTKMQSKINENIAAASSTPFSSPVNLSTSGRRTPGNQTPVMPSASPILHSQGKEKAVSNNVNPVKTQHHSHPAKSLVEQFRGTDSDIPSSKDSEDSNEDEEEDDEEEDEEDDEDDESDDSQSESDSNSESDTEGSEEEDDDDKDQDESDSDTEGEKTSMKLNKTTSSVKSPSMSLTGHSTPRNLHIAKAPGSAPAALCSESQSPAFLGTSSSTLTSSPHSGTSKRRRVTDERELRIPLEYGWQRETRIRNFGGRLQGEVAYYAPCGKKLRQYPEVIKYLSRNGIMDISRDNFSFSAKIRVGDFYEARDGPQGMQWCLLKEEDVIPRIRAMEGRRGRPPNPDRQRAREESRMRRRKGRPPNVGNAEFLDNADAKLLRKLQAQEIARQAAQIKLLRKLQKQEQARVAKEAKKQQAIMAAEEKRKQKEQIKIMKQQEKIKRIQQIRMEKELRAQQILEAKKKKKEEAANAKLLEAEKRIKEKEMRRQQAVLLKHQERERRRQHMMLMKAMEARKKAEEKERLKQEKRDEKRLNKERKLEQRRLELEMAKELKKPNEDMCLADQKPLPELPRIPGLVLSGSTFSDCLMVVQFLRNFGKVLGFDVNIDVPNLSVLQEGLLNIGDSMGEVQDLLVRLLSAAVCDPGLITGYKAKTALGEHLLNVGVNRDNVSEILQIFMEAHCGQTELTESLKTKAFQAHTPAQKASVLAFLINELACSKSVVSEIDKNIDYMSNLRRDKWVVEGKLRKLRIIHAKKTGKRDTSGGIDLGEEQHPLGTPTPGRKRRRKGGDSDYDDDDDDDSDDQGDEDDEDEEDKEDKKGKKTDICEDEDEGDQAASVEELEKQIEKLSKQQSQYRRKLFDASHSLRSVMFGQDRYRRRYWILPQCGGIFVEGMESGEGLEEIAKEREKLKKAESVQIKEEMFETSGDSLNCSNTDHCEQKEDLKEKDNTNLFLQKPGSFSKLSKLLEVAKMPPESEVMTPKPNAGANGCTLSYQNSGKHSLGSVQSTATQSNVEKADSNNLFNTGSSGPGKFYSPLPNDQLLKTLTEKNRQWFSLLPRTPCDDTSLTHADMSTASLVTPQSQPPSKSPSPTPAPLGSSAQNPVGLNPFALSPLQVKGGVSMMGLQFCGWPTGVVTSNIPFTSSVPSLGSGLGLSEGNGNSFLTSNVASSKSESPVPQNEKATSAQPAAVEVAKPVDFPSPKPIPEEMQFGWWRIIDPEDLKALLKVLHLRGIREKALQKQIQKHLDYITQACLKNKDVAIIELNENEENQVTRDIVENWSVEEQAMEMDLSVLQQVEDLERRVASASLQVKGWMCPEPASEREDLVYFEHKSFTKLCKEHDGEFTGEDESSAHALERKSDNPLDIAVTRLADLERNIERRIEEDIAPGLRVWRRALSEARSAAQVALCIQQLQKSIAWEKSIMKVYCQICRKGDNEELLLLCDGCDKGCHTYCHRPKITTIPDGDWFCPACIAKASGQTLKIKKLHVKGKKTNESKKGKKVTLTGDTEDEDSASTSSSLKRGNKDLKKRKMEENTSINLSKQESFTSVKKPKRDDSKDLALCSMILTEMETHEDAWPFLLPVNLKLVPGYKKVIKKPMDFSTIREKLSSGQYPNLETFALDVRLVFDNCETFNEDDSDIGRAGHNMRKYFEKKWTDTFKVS

| SMILES | Potency |
| --- | --- |
| C=CCn1c(SCC(=O)NCC2CCCO2)nc2scc(-c3ccco3)c2c1=O (stereo unspecified) | inconclusive: 79.4 µM [inhibitor, single point] |
| CCOc1ccc(OCc2ccc(C(=O)N3CCc4ccccc4C3)o2)cc1 | inconclusive: 89.1 µM [inhibitor, single point] |
| CCOc1cc(NC(=S)Nc2cccc(OC)c2)c(OCC)cc1NC(=O)c1ccc(C)cc1 | inconclusive: 44.7 µM [inhibitor, partial curve] |
| CC(C)CN1C(=O)/C(=C(/C#N)C(=O)NC2CCCCC2)c2ccccc21 | inconclusive: 31.6 µM [inhibitor, partial curve] |
| NS(=O)(=O)c1ccc(N/N=C/C=C/c2ccccc2[N+](=O)[O-])cc1 | inconclusive: 39.8 µM [inhibitor, partial curve] |
| COc1ccc(CC(=O)NNC(=O)c2cccs2)cc1OC | inactive |
| CN(C)c1ccc(/C=C2\NC(=S)N(Cc3ccccc3)C2=O)cc1 | active: 28.2 µM |
| CCN(CC)CCn1c(NCc2ccco2)nc2ccccc21 | inconclusive: 89.1 µM [inhibitor, single point] |
| Cc1cccc(OCC(=O)NCC(=O)N=Nc2c(O)[nH]c3ccc([N+](=O)[O-])cc23)c1 | inconclusive: 79.4 µM [inhibitor, single point] |
| O=C(O)c1cccnc1SCc1cn2cc(Cl)ccc2n1 | inconclusive: 89.1 µM [inhibitor, single point] |
| Cc1c(C(=O)NCc2cccc(Cl)c2)sc2nc3n(c(=O)c12)CCC3 | inactive |
| CN(C)S(=O)(=O)c1cccc(NC(=O)COC(=O)/C=C/c2ccc([N+](=O)[O-])cc2)c1 | inconclusive: 70.8 µM [inhibitor, single point] |
| Cc1scc2c1N(C(=O)CN1CCN(C)CC1)c1ccccc1NC2=O | inconclusive: 56.2 µM [inhibitor, partial curve, poor fit] |
| C/C=C/C(=O)N1CC2(CC(c3cccc(NC(=O)COc4ccc(Cl)cc4)c3)=NO2)C[C@@H]1C(N)=O (stereo partly specified) | inconclusive: 79.4 µM [inhibitor, single point] |
| O=C(CNCc1ccccn1)N1CCc2ccccc2C1 | active: 3.98 µM |
| COc1ccc(N2CCN(CCCNC(=O)CN3CCN(Cc4ccccc4C)C3=O)CC2)cc1 | active: 31.6 µM |
| COc1cccc(CNC(=S)Nc2cc(OC)ccc2OC)c1 | inconclusive: 50.1 µM [inhibitor, partial curve] |
| Cc1ccc(N2CC(C(=O)Nc3ccc4c(c3)OCCO4)CC2=O)cc1C (stereo unspecified) | inconclusive: 79.4 µM [inhibitor, single point] |
| Nc1cc(CN2C(=O)c3ccccc3C2=O)cc(Cl)c1O | inconclusive: 89.1 µM [inhibitor, single point] |
| O=C(c1cccc(S(=O)(=O)N2CCc3ccccc3C2)c1)N1CCN(c2ccccc2)CC1 | inactive |
| Cc1cc(/C=N/NC(=O)C(O)(c2ccccc2)c2ccccc2)c(C)n1-c1ccccc1 | inconclusive: 44.7 µM [inhibitor, partial curve] |
| CC(C)(C)c1ccc(-c2noc(-c3ccc4c(c3)CCO4)n2)cc1 | inactive |
| Cc1cnc(C(=O)OCC(=O)Nc2ccccc2-c2ccccc2)cn1 | inactive |

| SMILES | Potency |
| --- | --- |
| CC(C)c1ccc(N(C(=O)CNC(=O)c2ccco2)C(C(=O)NC2CCCC2)c2ccncc2)cc1 (stereo unspecified) | inactive |
| CC(C)OC(=O)c1ccc2nc3ccccc3nc2c1 | inconclusive: 10 µM [inhibitor, partial curve] |
| CSc1nsc(/C=C/Nc2cccc(Cl)c2)c1C#N | inconclusive: 35.5 µM [inhibitor, partial curve] |
| CC1CC(C)CN(C(=O)COC(=O)c2c[nH]c3ccccc23)C1 (stereo unspecified) | inactive |
| COc1ccc(C(=O)NC(=S)NCc2cccnc2)cc1Br | inconclusive: 56.2 µM [inhibitor, partial curve] |
| COc1ccc(-n2nc3c(N4CCC(C(=O)NCCc5ccccc5)CC4)nnc(C)c3c2C)cc1 | inconclusive: 89.1 µM [inhibitor, single point] |
| CC(C)CNC(=O)CN(c1cccc(Cl)c1)S(C)(=O)=O | inactive |
| O=c1[nH]cnc2c1c(-c1ccccc1)cn2-c1ccccc1 | inconclusive: 70.8 µM [inhibitor, single point] |
| CCn1c(-c2cc3ccccc3cc2O)n[nH]c1=S | inactive |
| S=C1NC(c2ccccc2)N2C(=S)NC(c3ccccc3)N12 (stereo unspecified) | active: 79.4 µM |
| O=C(CSc1nnc(-c2cccc(F)c2)c(-c2cccc(F)c2)n1)NC1CCCCC1 | inactive |
| Cc1nc2ccccc2n1CC(=O)N/N=C\C=C\c1ccccc1 | inconclusive: 7.08 µM [inhibitor, partial curve] |
| O=C(c1ccc(N2CCCCC2)c([N+](=O)[O-])c1)N(c1ccccn1)c1ccccn1 | inconclusive: 44.7 µM [inhibitor, partial curve] |
| Cc1ccc(S(=O)(=O)c2cc(Nc3ccccc3)ccc2O)cc1 | active: 50.1 µM |
| CC(C)(C)c1ccc(C(=O)NNc2cc(N3CCOCC3)nc(N3CCOCC3)n2)cc1 | inconclusive: 22.4 µM [inhibitor, single point] |
| Cc1ccc(N2CCN(S(=O)(=O)c3ccc(Cl)c4ccccc34)CC2)c(C)c1 | inconclusive: 89.1 µM [inhibitor, single point] |
| C=CCSC1=N/C(=C\c2cc(OCC)c(OC(C)=O)c([N+](=O)[O-])c2)C(=O)S1 | active: 35.5 µM |
| COc1ccccc1N1CCN(S(=O)(=O)c2cccc3nsnc23)CC1 | inconclusive: 79.4 µM [inhibitor, single point] |
| CN(C)CCN1C(=O)C(O)=C(C(=O)c2ccco2)C1c1ccccc1F (stereo unspecified) | inactive |
| COCCCNC(=O)CCCn1c(=O)c2cccn2c2ccccc21 | inactive |
| COc1ccc(-c2nc(C)c(C(C)=O)n2O)cc1OC | inconclusive: 89.1 µM [inhibitor, single point] |
| O=C(NC1CCCC1)C(c1ccc(Cl)cc1)N1CCc2ccccc21 (stereo unspecified) | inactive |
| O=C1CCCN1CCC1CCN(C2CC(=O)N(c3ccc(F)cc3)C2=O)CC1 (stereo unspecified) | inactive |
